About 200 (0.47%) of roughly 43,000 compounds were called active. Roughly 12% stayed inconclusive and do not appear here. Calls come from the whole dose curve; as a rule, active = well fitted cell-killing curve with a large enough effect; inconclusive = small, poorly fitted or top-dose-only effect, or effect the other way; inactive = flat fitted curve, though single readings scatter. Some of the results follow.
assay: Cell viability qHTS assay in S16 Pmp22-F2sN cells; conditions: S16 Pmp22-F2sN Schwann cells (luciferase reporters placed in the Pmp22 gene) viability, CellTiter-Glo, 24 h; series mostly up to 57.5 µM; activity change, negative = cytotoxicity: at the top concentration; note: nearly all actives have a fitted effect of over 65% in size
Summary of the method: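 S16 Schwann cells carrying the Pmp22-F2sN reporter, seeded in 1536-well format, were exposed to library compounds for 24 h at 37C. Viability was read as CellTiter-Glo luminescence after 15 min at room temperature.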
% is set by controls: 0 for no effect and ±100 for the full control effect.

Row | Structure (SMILES) | activity change, negative = cytotoxicity
1 | Cc1cccc(N2CCN(C(=O)c3c(C)oc4ncnc(N5CCOCC5)c34)CC2)c1C | inactive: -0.888%
2 | COc1ccc(C)cc1NC(=O)c1cc(S(=O)(=O)N2CCC(C)CC2)cn1C | inactive: 19.1%
3 | Cc1nn(C(=O)COc2ccccc2Br)c(C)c1Sc1ccccc1 | inactive: 1.49%
4 | O=C(CSc1n[nH]c(-c2ccccc2)n1)N1CCN(c2ccccc2F)CC1 | inactive: 4.46%
5 | Cc1cccc(NC(=O)c2sc3nc(-c4ccccc4)cn3c2C)c1C | inactive: -14.4%
6 | COc1ccc2c(CNCc3ccccc3OC)c(C(=O)O)n(Cc3ccc(F)cc3Cl)c2c1 | inactive: -3.23%
7 | CCc1ccc(NC(=O)C2CCC(CNS(=O)(=O)c3ccc4c(c3)C(C)(C)C(=O)N4C)CC2)cc1 (configuration not stated) | inactive: 13.9%
8 | Cc1cccc(NC(=O)C(=O)NCCc2sc(-c3ccccc3)nc2C)c1C | inactive: 13.6%
9 | Cc1c(Cl)cccc1NC(=O)C(CCS(C)(=O)=O)N1Cc2ccccc2C1=O (configuration not stated) | inactive: 1.61%
10 | COc1ccc(-c2cn3c(n2)sc2cc(C(=O)NC4CCCCCC4)ccc23)cc1 | inactive: -1.48%
11 | Cc1ccc(Cl)cc1NC(=O)N1CCC2(CC1)Oc1ccccc1C(=O)N2Cc1ccccc1F | inactive: -0.0945%
12 | CCS(=O)(=O)N1CC(=O)N(c2cc(C)ccc2C)C(C)(C(=O)NC2CCCCC2)C1 (configuration not stated) | inactive: 11.4%
13 | COc1ccc(-n2nnc(-c3nsc(NC(=O)c4cccs4)n3)c2C)cc1OC | inactive: -4.6%
14 | CC(CNC(=O)c1cc(-c2ccccc2)n[nH]1)c1ccccc1 (configuration not stated) | inactive: 7.03%
15 | CC1CCCN(c2c(S(=O)(=O)c3ccccc3)cnc3ccc(Cl)cc23)C1 (configuration not stated) | inactive: -8.84%
16 | Cc1ccc(S(=O)(=O)c2c(Nc3cc(C)ccc3C)sc(C(=O)c3ccc4c(c3)OCO4)c2N)cc1 | inactive: -25.1%
17 | COC(=O)c1ccc(Cn2c(SCc3ccccc3F)nc3ccncc32)cc1 | inactive: 3.93%
18 | CCOc1ccc(CCNC(=O)Cn2c(=O)c3cccn3c3ccc(F)cc32)cc1OCC | inactive: 10.1%
19 | Cc1nc2nc(NCc3cccc(Cl)c3)[nH]n2c(=O)c1Cc1ccccc1 | inactive: 17.1%
20 | CCOc1ccc2nc(N3CCCC(C(=O)NCCCOC)C3)sc2c1 (configuration not stated) | inactive: -5.33%
21 | COc1cccc(C(=O)c2cn(CC(=O)Nc3cccc(C(F)(F)F)c3)c3nc(C)ccc3c2=O)c1 | inactive: 0.199%
22 | CCN(CC)S(=O)(=O)c1ccc2c(c1)nc(CN(C)C(=O)Nc1cccc(Cl)c1)n2C | inactive: -27.8%
23 | CCCN(CCC)C(=O)CN1C(=O)CSc2ccc(S(=O)(=O)N3CCC(C)CC3)cc21 | inactive: -7.83%
24 | COc1ccc(Cn2c(CCC(=O)Nc3ccc(C)c(C)c3)nc3cccnc32)cc1 | inactive: -2.45%
25 | CC(=O)N1CCc2cc(S(=O)(=O)NC(CC(C)C)C(=O)NCCc3ccc(C)cc3)ccc21 (configuration not stated) | inactive: -6.45%

Row | Structure (SMILES) | activity change, negative = cytotoxicity
26 | COc1ccc(OCCn2c(C(C)Oc3ccccc3)nc3ccccc32)cc1 (configuration not stated) | inactive: -24.8%
27 | Cc1ccc(Cl)cc1-n1ncc2c(NCc3ccc(F)cc3)ncnc21 | inactive: -26.2%
28 | COc1ccc(CNC(=O)C2CCN(S(=O)(=O)c3ccc(F)cc3)CC2)cc1 | inactive: 7.04%
29 | CSc1ncc(C(=O)Nc2cccc(C)c2C)c(-c2ccccc2)n1 | inactive: 17.1%
30 | Cc1ccc(-c2nc(-c3cc4cccc(OCc5ccc(F)cc5)c4oc3=O)no2)cc1 | inactive: 4.78%
31 | CCN(c1ccccc1)S(=O)(=O)c1nnc(NC(=O)C(C)(C)C)s1 | inactive: 2.37%
32 | CCN1CCc2nc3sc(C(=O)c4ccccc4)c(N)c3cc2C1 | inactive: -13.7%
33 | COC(=O)c1ccc2c(c1)N(Cc1cc(C)ccc1C)C(=O)c1ccccc1S2 | inactive: 12.4%
34 | O=C(CS(=O)(=O)c1cccc2nsnc12)Nc1ccc(F)cc1 | inactive: -5.62%
35 | CCCN(CCC)CCNC(=O)Cn1cc2c(n1)-c1c(oc(C(=O)N3CCCC3)c1C)CC2 | inactive: 6%
36 | Cc1cccc(-c2nnn3c2nc(NCCc2ccc(S(N)(=O)=O)cc2)c2ccccc23)c1 | inactive: 15.1%
37 | COc1ccc(OC)c(NC(=O)CSc2cn(CC(=O)N3CCCCCC3)c3ccccc23)c1 | inactive: -21%
38 | Cc1cc(NCc2ccccc2Cl)n2cnnc2n1 | inactive: -18.3%
39 | Cc1ccc(NC(=O)CSc2nc3ccccc3nc2Cc2ccccc2)c(C)c1 | inactive: -3.08%
40 | CCOc1ccc(Cn2c(-c3ccc(OCC)c(OC)c3)nc3ccccc32)cc1OC | inactive: -16.1%
41 | COCCNC(=O)CSc1nc2cc3c(cc2c(=O)n1CCCC(=O)NCc1ccc(OC)cc1)OCO3 | inactive: 2.95%
42 | COCCNC(=O)c1ccc2c(c1)N(Cc1cc(C)ccc1C)C(=O)c1ccccc1S2(=O)=O | inactive: -7.14%
43 | COc1ccc(S(=O)(=O)N2CCN(c3ccc(Cl)c(Cl)c3)CC2)c2ccccc12 | inactive: 3.1%
44 | CCSc1ncc(Cl)c(C(=O)N(Cc2ccc(N(C)C)cc2)Cc2ccco2)n1 | inactive: -1.16%
45 | CC1=C(C(=O)Nc2cccnc2)C(c2ccccc2)n2nc(SCc3ccccc3Cl)nc2N1 (configuration not stated) | inactive: 8.58%
46 | COc1ccc(C)cc1NC(=O)C1CCN(S(=O)(=O)c2ccc3c(c2)CCCN3C(C)=O)CC1 | inactive: -6.1%
47 | O=C(Nc1ccc(N2CCN(c3ccc(F)cc3)CC2)c(C(=O)O)c1)c1ccccc1F | inactive: 6.4%
48 | CCCCOc1ccc(Cn2c(=O)oc3ccc(C)cc32)cc1 | inactive: 0.123%
49 | CCOC(=O)c1ccc(NC(=O)CSc2nc3ccccc3c(=O)n2CCNC(C)=O)cc1 | inactive: 3.76%
50 | CCc1ccc(NC(=O)CN2C(=O)C(c3ccc(F)cc3)=NC2(C)C)cc1 | inactive: 9.97%

Row | Structure (SMILES) | activity change, negative = cytotoxicity
51 | Cc1ccc(CCNC(=O)Cn2ncc3c([nH]c4ccc(C)cc43)c2=O)cc1 | inactive: -1.57%
52 | COc1ccc(S(=O)(=O)Nc2ccc3oc4c(c3c2)C(=O)CC(C)(C)C4)cc1 | inactive: -1.86%
53 | COc1cccc(C(=O)Nc2cccc(NC(=O)c3ccc(Cl)cc3Cl)c2)c1 | inactive: -2.29%
54 | CCCCN(C)C(=O)Cn1c(C2CC(=O)N(c3ccc(C)cc3)C2)nc2ccccc21 (configuration not stated) | inactive: 13.7%
55 | CCOc1ccccc1NC(=O)c1c(NCc2ccc(C)o2)sc2c1CCC(C)C2 (configuration not stated) | inactive: 13.2%
56 | Cc1cccc(NS(=O)(=O)c2ccc3c(c2)[C@H]2C=CC[C@H]2[C@@H](c2ccc(F)cc2)N3)c1 | inactive: -12.7%
57 | CCc1ccc(C(=O)c2cn(CC(=O)Nc3cc(OC)ccc3OC)c3ccc(C)cc3c2=O)cc1 | inactive: 6.85%
58 | CCCOc1ccc(-c2nn(-c3ccccc3)cc2C2NC(=O)NC(C)=C2C(=O)OC)cc1 (configuration not stated) | inactive: 3.94%
59 | Cc1ccc(C)c(NC(=O)Cn2c(=O)nc(-c3ccccc3)c3ccccc32)c1 | inactive: 6.03%
60 | CCC(C)Nc1sc(S(=O)(=O)CC)nc1S(=O)(=O)c1ccc(C)cc1 (configuration not stated) | inactive: -1.44%
61 | CCOc1ccc(CNC(=O)CCCn2nc(C)c3sc4ccccc4c3c2=O)cc1 | inactive: 2.25%
62 | COC(=O)c1cc(S(=O)(=O)NCC2CCN(Cc3ccc(C)cc3)CC2)cn1C | inactive: 13.6%
63 | COc1ccc(-c2nc(CCNC(=O)c3cccs3)cs2)cc1 | inactive: -16%
64 | CNC(=O)Cn1nc(-c2ccc(Cl)cc2)c2ccccc2c1=O | inactive: 1.07%
65 | CS(=O)(=O)N(CC(=O)Nc1ccc(Br)cc1)c1ccccc1Br | inactive: -17.2%
66 | Cc1nn(C)c2c1c(-c1ccccc1)cc(=O)n2Cc1ccccc1Cl | inactive: -5.33%
67 | COc1cccc(N2CCN(C(=O)C3CCN(S(=O)(=O)c4cccc5nonc45)CC3)CC2)c1 | inactive: -4.66%
68 | Cc1ccc(CN(C(=O)COc2ccc(Cl)cc2)c2ccccn2)o1 | inactive: -1.46%
69 | Cc1cc(NC(=O)CCNS(=O)(=O)c2ccc3c(c2)CCCC(=O)N3)ccc1Br | inactive: -3.57%
70 | CCCCC(CC)CNC(=O)CN(C)S(=O)(=O)c1ccc2c(c1)c(=O)n(C)c(=O)n2C (configuration not stated) | inactive: -13.1%
71 | CCc1ccc(CNCc2c(C(=O)O)c(C)n(Cc3c(F)cccc3Cl)c2C)cc1 | inactive: -5.42%
72 | CCOc1cccc(C(=O)N(Cc2ccc(N(C)C)cc2)CC2CCCO2)c1 (configuration not stated) | inactive: 10.3%
73 | COc1cccc(-n2c(=O)c3c(C)c(C)sc3n(CC(=O)Nc3ccccc3OC)c2=O)c1 | inactive: 12.2%
74 | Nc1nc(SCC(=O)Nc2cccc(C(F)(F)F)c2)n[nH]1 | inactive: -4.24%
75 | CCOC(=O)c1c(-c2ccc(C)cc2)csc1NC(=O)c1cc(-c2ccc(Cl)cc2)on1 | inactive: -0.131%

Row | Structure (SMILES) | activity change, negative = cytotoxicity
76 | CCOc1ccc(N(C(=O)c2ccccc2F)S(=O)(=O)c2ccc3c(c2)n(C)c(=O)n3C)cc1 | inactive: -1.01%
77 | Cc1ccc(C(=O)CCC(=O)Nc2ccc(C)cc2C)cc1 | inactive: 0.382%
78 | CCc1ccccc1NC(=O)N1CCC(CN2CCc3ccccc3C2)CC1 | inactive: 19.6%
79 | Cc1cc(C)cc(NS(=O)(=O)c2ccc(-n3cccn3)cc2)c1 | inactive: 10.4%
80 | COCCCNC(=O)c1oc2c(c1C)-c1nn(Cc3ccc(Cl)cc3)cc1CC2 | inactive: -14.3%
81 | COc1ccc(-c2cccc(NS(=O)(=O)c3ccc(C)s3)c2)nn1 | inactive: 2.16%
82 | CC1CCC(Nc2ncnc3onc(-c4ccc(F)cc4)c23)CC1 (configuration not stated) | inactive: -17.3%
83 | O=C(O)c1c(-c2ccccc2)oc2ccc(OCc3ccc(Cl)c(Cl)c3)cc12 | inactive: -0.619%
84 | CCOc1cc(CNc2ccc(C(=O)O)cc2)ccc1OCc1ccccc1 | inactive: 22.3%
85 | Cc1ccc(OCC(=O)N(Cc2ccco2)C2CCS(=O)(=O)C2)cc1 (configuration not stated) | inactive: -8.25%
86 | CC(Oc1ccc(F)cc1)C(=O)Nc1cc(-c2ccc(F)c(F)c2)no1 (configuration not stated) | inactive: 8.81%
87 | COC(=O)c1c(NC(=O)COc2cc(C)c(Cl)c(C)c2)sc2c1CCCC2 | inactive: -1.86%
88 | COc1ccc(OC)c(S(=O)(=O)Nc2cc3c(C(C)=O)c(C)oc3c3ccccc23)c1 | inactive: -29.1%
89 | COc1cccc(C2CC(=O)Nc3c2c(=O)n(C)c2ncnn32)c1OC (configuration not stated) | inactive: -0.618%
90 | COc1ccc(CNC(=O)c2ccc3[nH]c(C)c(C)c3c2)c(OC)c1 | inactive: 4.2%
91 | COc1ccc(C(=O)Nc2ccc(OCc3cc(=O)n4ccccc4n3)cc2)cc1 | inactive: 2.59%
92 | CCOc1ccc(CCNC(=O)c2c(C)oc3ncnc(N4CCOCC4)c23)cc1 | inactive: 8.81%
93 | Cc1cc(C)cc(NC(=O)CN(C)S(=O)(=O)c2ccc3[nH]c4c(c3c2)CCCC4)c1 | inactive: -6.26%
94 | COCCCNC(=O)CSc1nc2ccccc2c(=O)n1Cc1ccco1 | inactive: -13.8%
95 | COc1ccc(-c2onc(C)c2C)cc1S(=O)(=O)NCc1ccc(Br)cc1 | inactive: -21.3%
96 | Cc1ccc(C)c(N2CCN(C(=O)CCS(=O)(=O)c3ccc4c(c3)CC(=O)N4C)CC2)c1 | inactive: -23.2%
97 | CCc1nnc2c(NCCc3ccc(OC)c(OC)c3)nc3ccccc3n12 | inactive: 1.25%
